The text below walks through data of PubChem BioAssay AID485344 (National Center for Advancing Translational Sciences (NCATS), 2010).

The whole screen tested about 340,000 compounds, of which about 6,900 (2%) were called active. Cut-off read from the data, not from the text of the source: active = inhibition above about 30%; inactive = below that, where a call was filed. This is a selection; strong and weak results do not stand in their true shares. The source gives no active or inactive call for entries shown without one.

UniProt P14416, sequence (P14416 whole entry, looked up): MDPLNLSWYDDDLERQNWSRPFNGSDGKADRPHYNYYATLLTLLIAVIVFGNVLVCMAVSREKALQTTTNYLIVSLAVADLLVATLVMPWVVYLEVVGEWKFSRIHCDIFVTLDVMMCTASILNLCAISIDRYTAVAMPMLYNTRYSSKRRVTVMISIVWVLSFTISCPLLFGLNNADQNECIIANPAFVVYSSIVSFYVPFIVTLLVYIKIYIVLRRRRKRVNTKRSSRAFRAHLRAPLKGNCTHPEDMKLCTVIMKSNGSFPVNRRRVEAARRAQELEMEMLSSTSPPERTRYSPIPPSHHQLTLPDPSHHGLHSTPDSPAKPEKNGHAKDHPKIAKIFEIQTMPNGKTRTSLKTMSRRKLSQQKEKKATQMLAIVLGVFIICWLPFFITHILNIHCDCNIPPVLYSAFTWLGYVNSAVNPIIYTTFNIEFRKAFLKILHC

This assay deals with D(2) dopamine receptor (Homo sapiens) (UniProt P14416). The assay is described as follows: HTS Assay for Allosteric Antagonists of the Human D2 Dopamine Receptor: Primary Screen for Antagonists. Note: 0% is about no effect. The conditions noted are these: HEK293 TREx D2 cells, calcium flux, dopamine EC80; at 10 µM; stronger effect = higher value. The essentials:
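Cells plated overnight at 30 C with tetracycline; no-wash calcium dye, 30–90 min RT; 10 s baseline; compound pinned; 180 s read; EC80 dopamine added; another 180 s read.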
As for `CN(C(=O)c1cc2c(s1)-c1ccc(Cl)cc1SC2)c1cccc(C(F)(F)F)c1`, the inhibition was -3.76%. As to `COC(=O)CSc1nnc(-c2ccc(S(=O)(=O)NCc3ccccc3Cl)cc2)o1`, the inhibition was active: 33.3%.

As for `Cc1ccc(CNC(=O)c2nnn(CC(=O)Nc3cc(C)ccc3C)c2N)cc1`, the inhibition is -4.27%. The figure for `CSCCC(NS(=O)(=O)c1ccc2c(c1)oc(=O)n2C)C(=O)N1CCN(c2cccc(Cl)c2)CC1` (configuration not stated) is 6.42%. Consider `COc1ccc2c(c1)NC(c1cccnc1)=NC(c1ccc(F)cc1)=N2`, for which the inhibition turned out to be 3.74%.

Consider `NS(=O)(=O)c1ccc(NC(=O)CSc2nc3ccccc3n2-c2ccccc2)cc1`, for which the inhibition is active: 31.5%. The figure for `Cc1ccc(CN2C(=O)c3ccccc3Sc3ccc(C(=O)OCc4ccco4)cc32)cc1` is 14.1%; for `COc1ccc(Br)cc1CNC(=O)c1ccc2c(c1)N(Cc1ccc(C)cc1)CCS2` it is -12.2%. On to `CC(C)(C)N(Cc1ccccc1)C(=O)CSc1nnc(CNc2ccc(F)cc2)o1`, for which the inhibition is active: 31.6%. Next, `CCOCCCn1c(=N)c(C(=O)NCC2CCCO2)cc2c(=O)n3cccc(C)c3nc21` (configuration not stated): 5.08%; `Cc1ccc(C)c(NC(=O)Cn2c(=O)n(Cc3ccccc3)c(=O)c3oc4ccccc4c32)c1`: -9.61%; `Cc1ccc(C)c(N2CCN(Cc3csc(C)c3)CC2)c1`: 7.21%. On to `COC(=O)C1=C(c2ccccc2)c2ccccc2S(=O)(=O)N1CC(=O)Nc1ccccc1Cl`, for which the inhibition turned out to be 8.36%.

In the case of `COC(=O)C1CCN(S(=O)(=O)c2cc3c4c(c2)CC(=O)N4CCC3)CC1`, the inhibition is -5.83%. The figure for `Cc1cccc(NS(=O)(=O)c2ccc3c(c2)CCN3C(=O)C2CCC2)c1` is 10.6%. Turning to `O=C(Nc1cccc(F)c1)c1ccc(-c2ccccc2)s1`, the inhibition is -4.41%. Regarding `COc1cc(Cl)cc2c1Sc1ccccc1/C2=C/CCN(C)C`, the inhibition is active: 63.2%.

Turning to `CCCN(CCC)CCCNC(=O)Cn1cnc2sc(C)c(S(=O)(=O)N3CCC(C)CC3)c2c1=O`, the inhibition is -10.1%.

In the case of `O=C(c1cccs1)N1CCCc2cc(NS(=O)(=O)c3ccc(F)cc3F)ccc21`, the inhibition is -4.78%. Next, `O=C(Cn1c(=O)oc2cc(S(=O)(=O)NCc3ccccc3)ccc21)NCc1ccc(Cl)cc1`: 0.112%; `Cc1ccc(-n2c(SCC(N)=O)nc3c(oc4ccccc43)c2=O)cc1C`: 1.64%. In the case of `CCOc1cc(CNC(=O)Cn2c(-c3cccs3)cc3cc(F)ccc32)ccc1OC`, the inhibition was 7.39%.

As to `CC1Cc2cc(S(=O)(=O)N(Cc3ccccc3)C(C)C)ccc2N1C(=O)C1CCC1` (configuration not stated), the inhibition amounted to 7.53%. Next, `Cc1ccccc1Nc1c(-c2cccs2)nc2cccc(C)n12`: -2.68%; `CCOc1ccc(/C=C/c2nc(C#N)c(NCCc3ccccc3)o2)cc1`: -3.23%; `O=C(CSc1nc2c([nH]c3ccccc32)c(=O)n1-c1ccc(Cl)cc1)NCC1CCCO1` (configuration not stated): -3.63%. The figure for `Cc1cc(C(=O)Nc2c(C)nc3ccccn3c2=O)ccc1[N+](=O)[O-]` is -1.94%; for `CCOC(=O)c1c(C)oc2nc(C)nc(NCc3ccccc3OC)c12` it is -15.7%. For the molecule `CC(=O)Nc1ccc(NC(=O)C(C)OC(=O)CCC2CCCC2)cc1` (configuration not stated), the inhibition is active: 30.5%. Next, `COc1ccccc1NC(=O)Cn1c(=O)n(CCCCCC(=O)NCc2ccccc2)c(=O)c2sccc21`: -9.47%. Next, `CC1CC(C)CN(CCOc2cccc3ccccc23)C1` (configuration not stated): active: 55.1%. The figure for `Clc1cccc(-c2nn3c(Cn4cnc5ccccc54)nnc3s2)c1` is active: 33.9%. As for `Cc1ccc(NC(=O)c2ccc(NC(=O)N3CCSc4ncccc43)cc2)c(C)c1`, the inhibition came out at 3.91%. The figure for `COc1ccc(C)cc1-n1cnc2cc(C(=O)NC3CCCC3)ccc21` is -4.73%; for `COc1cc(C(=O)Nc2nonc2-c2ccc(C)c(C)c2)cc(OC)c1OC` it is 0.518%; for `COc1ccc(OC)c(CNC(=O)Cn2nc(C)c3c(C)n(-c4ccc(C)cc4)nc3c2=O)c1` it is active: 30%.

With `Cn1cc(S(=O)(=O)c2ccccc2)c(=O)c2cc(F)c(N3CCCCCC3)cc21`, the inhibition is 16.2%. In the case of `Cc1cc(C)cc(-n2c(SCC(=O)Nc3ccc4c(c3)OCCO4)nc3c([nH]c4ccccc43)c2=O)c1`, the inhibition is -8.74%. Next, `COc1cc(CNCCN2CCOCC2)ccc1OCc1cccc(Cl)c1`: active: 42.3%. For `COc1ccc(CNC(=O)CCc2nc(-c3ccc(C)cc3)no2)c(OC)c1`, the inhibition is -7.26%. `Cn1c(=O)n(C)c2cc(N3CCCCC3)c(NC(=O)c3ccc(C(C)(C)C)cc3)cc21`: the inhibition is -7.55%.

With `CCOC(=O)N1CCN(Cc2ccc3c(c2)OCO3)CC1`, the inhibition is active: 80.9%. Take `CC1=C(c2ccc(C)c(C)c2)S(=O)(=O)N=C1N1CCC(C(=O)NC(C)Cc2ccco2)CC1` (configuration not stated): the inhibition turned out to be 12.5%.

As for `COc1cccc(N2CCN(C(=O)c3ccc(NC(=O)c4nsc5ccccc45)cc3)CC2)c1`, the inhibition was -24.4%.

With `COc1ccc(NC(=O)c2ccco2)cc1NC(=O)COc1ccc(Cl)cc1C`, the inhibition came to 11.6%. The figure for `Cc1ccc(C(=O)NCc2ccc(F)cc2)cc1NC(=O)c1nsc2ccccc12` is -8.28%. Next, `CCN(CC)CCNC(=O)c1sc2ncccc2c1-n1cccc1`: -8.17%.

On to `Cc1ccc(NC(=O)CSc2nc(-c3ccccc3Cl)nc3cc(=O)[nH]n23)c(C)c1`, for which the inhibition is 5.72%.

Consider `COC(=O)c1c(C)nn(-c2ccc(F)cc2)c1-n1cccc1`, for which the inhibition stood at 0.934%. Regarding `CCc1cccc(Nc2ncnc3onc(-c4ccc(F)cc4)c23)c1`, the inhibition was -24.5%.

Take `O=C(CSc1nc(-c2ccc(F)cc2)cc(C(F)(F)F)n1)NCCc1ccccc1`: the inhibition was -1.63%.

For `Cc1nnc(Sc2nc3c(c(=O)[nH]c(=O)n3C)n2CCc2ccccc2)s1`, the inhibition is active: 50.5%. The figure for `O=C(CSc1cn(CC(=O)N2CCCCC2)c2ccccc12)Nc1ccc(C(F)(F)F)cc1` is -3.81%. The figure for `COc1cccc(N2CCN(S(=O)(=O)c3ccc(-c4ccno4)cc3OC)CC2)c1` is 11.3%.

With `COc1ccc(OC)c(C2NC(=O)NC(C)=C2C(=O)Nc2ccc(F)cc2)c1` (configuration not stated), the inhibition is -9.06%. The figure for `COc1ccc(CCNC(=O)CSc2n[nH]c(-c3ccccc3Cl)n2)cc1OC` is -11.4%; for `COc1ccc(Cl)cc1NC(=O)CSC1=Nc2ccccc2C2=NC(CC(=O)NCc3cccs3)C(=O)N12` (configuration not stated) it is -7.41%; for `O=C(NCc1ccccc1)c1cnc(N2CCCCC2)c2ccccc12` it is -22.2%. The figure for `COc1ccc(Nc2c(-c3ccccn3)nc3ccc(Cl)cn23)cc1` is 21.8%; for `COc1cccc(Nc2nc3ccc(C)cc3nc2-n2nc(C)cc2C)c1` it is 5.85%.

Turning to `Cc1ccc(NC(=O)C2=CC(c3ccc4c(c3)OCO4)=NS(=O)(=O)N2C)cc1`, the inhibition worked out at 0.457%.

As to `CCOC(=O)c1c(S(=O)(=O)NCC2CCN(CCc3cccs3)CC2)c(C)n(C)c1C`, the inhibition was active: 43.2%. The figure for `CCc1ccc(-n2c(=O)c3cccnc3n2CC(=O)NCc2ccc(C)cc2)cc1` is 7.85%. The figure for `Cc1ccc(NC(=O)Cn2c(=O)n(Cc3nc(-c4ccccc4)no3)c(=O)c3cc4c(cc32)OCO4)c(C)c1` is -5.6%. Next, `Nc1cc2c(cc1[N+](=O)[O-])OCCO2`: active: 47.2%.

As to `COc1ccc(CN2CCN(c3ccccn3)CC2)c(OC)c1`, the inhibition was active: 82.9%. Next, `CCCCOC(=O)c1ccc(NC(=O)c2cnc3ccc(C)cn3c2=O)cc1`: 11.9%; `CCn1c(=O)cc(OCC(=O)N2CCN(c3ccc(F)cc3)CC2)c2ccccc21`: -1.78%. The figure for `CCN(c1cccc(C)c1)c1ncnc2c1cnn2-c1cccc(Cl)c1` is -12.1%; for `COc1ccc(CN2COc3ccc4c(-c5ccccc5)cc(=O)oc4c3C2)cc1OC` it is -7.27%; for `Cc1nn(C(=O)c2ccc(Br)cc2)c(C)c1Sc1ccccc1` it is -8.42%. Next, `COc1cc(OC)c(N(C)C(=O)c2sc3nc4n(c(=O)c3c2C)CCCC4)cc1Cl`: -14.9%. With `Cn1c(=O)n(CCCc2ccccc2)c(=O)c2c1nc1n2CCN1c1ccc(F)cc1`, the inhibition was 11.9%. Next, `O=C(c1cc(-c2ccc(O)cc2)on1)N1CCN(c2ccccc2)CC1`: -5.66%; `CSc1nc2sc3c(c2c(=O)n1-c1ccccc1)CCC(C(C)(C)C)C3` (configuration not stated): -0.617%. On to `Cc1cc(C)cc(NC(=O)CCCc2nc(-c3ccccc3Cl)no2)c1`, for which the inhibition was determined as 6.92%. In the case of `Clc1cccc(Cl)c1OCCOCCNCc1ccccc1`, the inhibition is active: 53%.

For `CCc1ccc(NC(=O)Cn2cc(S(=O)(=O)N3CCCC3)c(S(=O)(=O)N3CCCC3)c2)cc1`, the inhibition was -9.86%.

For the molecule `O=C(NC1CC(=O)N(c2ccc(F)cc2)C1)C1CC1` (configuration not stated), the inhibition was -2.38%.

Regarding `CC(C)NC(=O)CCN1C(=O)c2ccccc2Sc2ncccc21`, the inhibition is -9.83%.

As to `COc1ccc2oc(=O)c(-c3nc(-c4cccs4)no3)cc2c1`, the inhibition was -3.77%. The figure for `Cc1ccc(NC(=O)Cn2nnc(C(=O)NCc3ccc4c(c3)OCO4)c2N)cc1Cl` is 2.21%; for `COc1ccc(-c2nn(-c3cccc(F)c3)c3c2cnc2cc(OC)c(OC)cc23)cc1` it is -4.17%; for `COc1ccc2[nH]cc(S(=O)(=O)c3ccc(C)c(C)c3)c(=O)c2c1` it is 19.4%. Next, `COc1ccc(Cn2c(=O)[nH]c3cc(C(=O)N4CCN(c5cc(Cl)ccc5C)CC4)ccc3c2=O)cc1`: 2.55%; `Nc1ccc(/C=C/C(=O)c2cccs2)cc1`: active: 59.6%. Consider `O=C(Nc1nnc(SCc2cc(=O)n3cc(Cl)ccc3n2)s1)c1cccc(F)c1`, for which the inhibition was 2.24%. On to `O=C(c1ccc2c(Cl)c3c(nc2c1)CCCC3)N1CCN(c2ccccc2F)CC1`, for which the inhibition worked out at 4.21%. The figure for `CCC(C(=O)N1CCN(c2ccccc2)CC1)n1nc(C)c2sc3ccccc3c2c1=O` (configuration not stated) is -18.9%.

Turning to `Cc1ccccc1NC(=O)c1cnc2sc(N3CCCC3)nn2c1=O`, the inhibition was found to be 3.54%. The figure for `COc1ccc(N2CC(NC(=O)c3c(F)cccc3Cl)CC2=O)cc1OC` (configuration not stated) is 0.272%; for `CCOc1ccc(N2CC(c3nc4ccccc4n3CCOc3ccc(CC)cc3)CC2=O)cc1` (configuration not stated) it is -4.86%. In the case of `COCCCNS(=O)(=O)c1ccc2c(c1)OCCO2`, the inhibition was active: 34.4%.

Take `O=C(CSc1nc2ccccc2n1Cc1c(F)cccc1Cl)N1CCN(c2ccc(F)cc2)CC1`: the inhibition came to 5.67%. Next, `CCNCCC(=O)N1c2ccccc2Sc2ccc(C(F)(F)F)cc21`: active: 72.6%. `O=C(CSc1nc2ccsc2c(=O)n1Cc1ccccc1Cl)NCc1ccc(Cl)cc1`: the inhibition was 5.08%. Turning to `CCOc1cc(CNC(=O)c2ccc3nc(CCc4ccccc4)oc3c2)ccc1OC`, the inhibition is -25.8%.
